Test results from the supplement of paper PMC11417369.
The list shows a part of the results.

test system: PfSIP2 AP2 domain 1 (GST-tagged); assay: gcPBM binding intensity (ln(normalized median fluorescence intensity)); higher = stronger DNA binding
How it was run: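 The highest Masliner-normalised natural-log median intensity across replicate spots of either probe orientation is reported as binding intensity. GST-tagged P. falciparum DNA-binding domains expressed in E. coli were applied for 1 h to an Agilent 4 × 180k array of primer-extended double-stranded 36-bp intergenic genomic probes plus negative controls, and bound protein was detected with Alexa488 anti-GST antibody and scanned at 488 nm.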

Sequence | gcPBM binding intensity (ln)
TTTTTATGATTATACTTATATAATTTCATGATTGAA [CACACA_negctrl_site228] | 6.78
AATACTTACCAAAATACACACACACCCAAAATATAT [CACACA_site8559] | 7.21
ATTTTTATTTTATATACACACAATAATACTAGAATA [CACACA_site7810] | 7.21
ATATATATCTACATATGTACATATATACATTACACA [XGTACX_site7210] | 7.21
AGATATATAAAATATACACACAGTAATATTTATATA [CACACA_site6767] | 6.88
ATTTCATATGGTCAACGTACTCATGCATCCCTCCTT [XGTACX_site437] | 6.86
AATTATATTTGAAATACACACATAAAAACCATATAG [CACACA_site7598] | 7.19
TCAAAAAAGACACACCGTACATACTATTTGGACAGG [XGTACX_site7699] | 7
ATATATATATATATATGTACATATTTACATTTTGTA [XGTACX_site3529] | 9.59
TATACACATTCGCGTTGTACAAAAAAAAAAAAAAAG [XGTACX_site2880] | 7.14
AATAAAGGAGCCTATGAACACACACCGGTACATATA [CACACA_site9352] | 6.65
ATAATAATAGTAATATGTACATATATATATATATAT [XGTACX_site7437] | 9.47
ATAAAAAAAAGAAAAACACACACATATATATATATA [CACACA_site8243] | 9.42
AAGATGAACCTTTACACATGCAACAAAAAATATACA [TGCATGCA_site166] | 7.25
ATCAACATTATGTTTAGTACTTAGTGAATTGTTAAT [XGTACX_site4913] | 6.93
GAATTTTTGACGATATAGGAAATAATTATCCTGAAG [XGTACX_negctrl_site61] | 6.78
CTGTTAATTATATATTGTACAAAAGATATGATTATA [XGTACX_site6927] | 7.03
AAATAAAGAATATAAATACACACTTAAATATATATT [CACACA_site4007] | 6.73
ATTTATATATTTATATGTACATATCTATACATATAT [XGTACX_site7580] | 7.19
TTTTTAAAAAAAAAAAAATAAAAAAAAAAAAAATAT [XGTACX_negctrl_site7] | 6.76
ATAATAAAATAAATCACACATAATATAATGTAATAT [CACACA_site6144] | 6.98
ACAAAAAAATAAAATATATATATATATATAATATAT [CACACA_negctrl_site805] | 7.9

Sequence | gcPBM binding intensity (ln)
ATATATATATATATATGTACATATAATTTTTTTTTT [XGTACX_site6948] | 9.47
TTTATATTAATTTGTGTAAATGCATATGATGAGCAT [XGTACX_negctrl_site254] | 7
ATAACAATTATTTATCTACACACTTTTATGTTATTT [CACACA_site7886] | 7.09
TAAATTTTTTTTTTGATGCACTTAGTTATTATATTT | 8.14
AATGGCAAAATAGGCACACACACATATACAGATATA [CACACA_site4726] | 7.02
ATTAAGTCTTATATTACACACGACATTGTAATGTAA [CACACA_site528] | 6.76
AATTTTTTATACACAAGTACAAACGCGTAGTCACTT [XGTACX_site2458] | 6.77
ATTCCACTGTTTTAGTGTACTGGTCGTTTTTTTTTT [XGTACX_site1738] | 6.78
AAAAATAAAACAATTACACACATAATTTTATTTTTA [CACACA_site928] | 6.86
TCCAAAATATCCTTCACACACGAACAGTTTCATTTA [CACACA_site5511] | 6.89
AAAAAAATTCTTGGCGCACACACTTTAAAAATTAAA [CACACA_site597] | 7.25
AAGGATTACAAAAAAAGTACAAATGGATTTTTTCCC [XGTACX_site8905] | 6.84
CTTACAAATAAACAACGTACTTATTCGAATTATGCT [XGTACX_site2431] | 6.92
CATACAGACGAACACACACACATATAAATATAAATA [CACACA_site6443] | 7.27
AACCACATGGTGTAATGTACATTACCTTAACAATAA [XGTACX_site3055] | 6.91
AAATATTATATATATACACACACACCGGCATGCACA [CACACA_site7916] | 8.72
TATAATAAAATTGGTAGTACATTAATTTATGTATAG [XGTACX_site3059] | 7
TATTATTTTTTTTTTTGTACATATATGTATATATAT [XGTACX_site8471] | 7.51
AAATGCGCCATGTGTACACATATATATATATATATA [CACACA_site4649] | 9.67
TACATATATAAAAATTGTACACTTCATAAGAAAAAA [XGTACX_site4347] | 6.99
TTAAATAAGTTCTTCACACATATATATATATATATA [CACACA_site4742] | 9.46
GTTTTAAAATTAAATATTATGGCATAATTCAAGAAA [GTGCAC_negctrl_site721] | 7.01

Sequence | gcPBM binding intensity (ln)
AAAATTTTTTAACACTGTACTTGTAATATTAAAACT [XGTACX_site8369] | 7.11
ATTCCCTTAAGAAACTGTACAAAACTTTCTTCGATT [XGTACX_site775] | 6.97
GTGTGTGTATATATTTGTACATATATTTAAACATAT [XGTACX_site1074] | 8.11
TATACATAAATTATATGTACTGAAAATACATAATTA [XGTACX_site3626] | 6.94
GGTAGGTGGATATATACACACATATATTATAGATAT [CACACA_site7021] | 7.28
CACAGATATATACATACACACATATATACACATATA [CACACA_site6323] | 7.3
ATCGAGAAAAATAAAATAATACAATTTCTTTAAATA [XGTACX_negctrl_site162] | 6.75
AAAAAAAAAAGAACCCGTACATAAATAATATATATA [XGTACX_site164] | 7.48
TTTTTTTTTTCTTAGGTGCAAAAAATAAGTATATAT [GTGCAC_site9394] | 10.1
TTTTTTTTGTATTAATGTACATATAACTTTTTTTTT [XGTACX_site7903] | 6.84
TAAAAAATAAAATAATGTACATATGAATTATATATT [XGTACX_site8398] | 6.94
AAAAAAAAAAAAGAAACACACACATTTGTATATAAT [CACACA_site8648] | 6.93
GAAACATAAAAATATATTGAAATAGTATCATGGGTA [CACACA_negctrl_site352] | 7.09
TATAGTTATATTAGAAGTACTTCATTTTAACATATT [XGTACX_site7101] | 6.87
TTAATTACATGTTATTGTACGTATTTTCTATCTATC [XGTACX_site844] | 7.2
AAAAAAAAAAATATATTATTTTACTTGTTTATTTTA [CACACA_negctrl_site1447] | 6.68
AAAAAGAAGAATATATGTACACAAAATTTATGAGTT [XGTACX_site8609] | 6.91
CATTATAAGAAACACACACACATATATATATATATA [CACACA_site1051] | 9.23
AAATTCTTAACCCAACGTACATATAATAAATTCTTA [XGTACX_site8538] | 6.94
TAAACCAAACAATTATGTATAAGATGTATATATATA [GTGCAC_negctrl_site438] | 8.9
AGAAGAAAAGAAATATGTACATAAACGTCTGAACTA [XGTACX_site1699] | 6.9
ATAACAAATATGATAGCATGCTACATATTACAACTT [TGCATGCA_site524] | 6.83

Sequence | gcPBM binding intensity (ln)
GTTCCATATATTACATGTACATATTTTTACATTTAA [XGTACX_site660] | 7.34
TGATTAATAGCAGGTAGTACTATAATAATATAAATA [XGTACX_site2776] | 7.1
TGACATAAATTTAATACACACACAAAGAAAAAAAAA [CACACA_site9354] | 7.06
TTTAAAAAAAAAAAAAAAAATTCTACATGTAATTTA [CACACA_negctrl_site1205] | 6.59
ATATATCACATGAACATTAAAAAAAAAAAAGAGGGG [TGCATGCA_negctrl_site187] | 7.39
ATATCACATTCCACGGTACACACTAATAGAAAAATC [CACACA_site9204] | 7.42
TTTATACAATTAGACACACACAAAAAGTATAAATAT [CACACA_site6637] | 7.01
GGAACATATGAACTCACACACATTTTCACTTAAATA [CACACA_site3684] | 6.91
TAAAATGATAAATGAATGTGATCATTTTATAAAATA [CACACA_negctrl_site674] | 6.65
AATATTTATAAATTTACACACACACCGGTGAACATA [CACACA_site8579] | 6.92
TTTAAACTAGAACAAGTGCAGATATGTATAATAATA | 7.66
TATTTTTAGAAAATAAAGAAGGAGAATTGAAAATAT [CACACA_negctrl_site361] | 7.06
ATTTATTTTTATCAAGCATGCATAAAAAATAAATTA [TGCATGCA_site440] | 6.91
AAGAAAAGATATATATATAAATATATATATATATAT [TGCATGCA_negctrl_site353] | 9.35
TTTTATTTTGGAACGTGTACATATAATTATTTATTG [XGTACX_site8094] | 7.17
AAAATATATACAAGCAAACACACGTAATATATATTA [CACACA_site2152] | 7.02
ATATTACTAATTAATGGTACACGTTATAATAAACTA [XGTACX_site7051] | 7.12
GCATAAAATATGATCGCACACTGTTTAAAATACTTA [CACACA_site828] | 6.99
AGGTAGTTCTGTATCACACACATATAAATATAAATA [CACACA_site7110] | 7.08
ATACCTTCTTCATTCACACATATACGTAAAATGTTC [CACACA_site5657] | 7.53
CACCTGCACGATTGCACACAAATATGTTTTGAAGAT [CACACA_site2103] | 8.28
ACTACATAAAATGACACACACAAACTTTAAAATTTA [CACACA_site3474] | 7.18
